Experimental data published in the supplement of paper PMC9151546.
Most values come without repeats; read them as rough.

How the values were obtained:
CHO-K1 [1] = experiment: hypodiploid nuclei frequency (% of nucleated events); higher = more hypodiploid events (aneugenic)
Protocol: (§1)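 Flow-cytometric in vitro micronucleus assay (Litron MicroFlow) in CHO-K1 cells in 96-well plates, 19 concentrations (4.5-200 µM, n=1 per concentration). Without S9, cells were exposed for 24 h and sampled at 48 h. With Aroclor 1254-induced rat liver S9, cells were exposed for 3-4 h and sampled at 27-28 h. Read-outs are %MN and %hypodiploid nuclei relative to nucleated events, and relative survival as the nuclei-to-bead ratio versus the 1% DMSO vehicle control (x100).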

CHO-K1 [2] = experiment: relative survival (nuclei to bead ratio vs DMSO control) (% of vehicle control); higher = more surviving cells
Protocol: as §1

CHO-K1 [3] = experiment: micronucleus frequency (% of nucleated events); higher = more micronuclei (genotoxic)
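Wherever hypodiploid nuclei frequency (% of nucleated events) is given: hypodiploid nuclei gated on a flow cytometer with 488 nm excitation after SYTOX Green staining, cultures at 37 °C, positive controls vinblastine without S9 and cyclophosphamide with S9.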
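Wherever micronucleus frequency (% of nucleated events) is given: cells lysed with nuclei stained by SYTOX Green, then micronucleus-gated events counted against nucleated events by flow cytometry with 488 nm excitation.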
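Wherever relative survival (nuclei to bead ratio vs DMSO control) is given: Lysed-cell nuclei stained with SYTOX Green and counted against counting beads by flow cytometry at 488 nm excitation, with vinblastine (no S9) and cyclophosphamide (plus S9) as positive controls.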

Cc1ccc(-c2cc(C(F)(F)F)nn2-c2ccc(S(N)(=O)=O)cc2)cc1 [Celecoxib]
Details	hypodiploid nuclei frequency, CHO-K1 [1] [%]	micronucleus frequency, CHO-K1 [3] [%]	relative survival, CHO-K1 [2]
concentration: 4.5 (µM), S9 metabolic activation: with S9, exposure time: 3-4 hours	0.3	0.96	135
concentration: 4.5 (µM), S9 metabolic activation: without S9, exposure time: 24 hours	0.8	0.98	98.5
concentration: 5.63 (µM), S9 metabolic activation: with S9, exposure time: 3-4 hours	0.26	0.96	116
concentration: 5.63 (µM), S9 metabolic activation: without S9, exposure time: 24 hours	0.52	0.96	102
concentration: 7.04 (µM), S9 metabolic activation: with S9, exposure time: 3-4 hours	0.28	1.08	135
concentration: 7.04 (µM), S9 metabolic activation: without S9, exposure time: 24 hours	0.54	0.8	93.6
concentration: 8.8 (µM), S9 metabolic activation: with S9, exposure time: 3-4 hours	0.3	0.88	121
concentration: 8.8 (µM), S9 metabolic activation: without S9, exposure time: 24 hours	0.62	1.12	90.2
concentration: 11 (µM), S9 metabolic activation: with S9, exposure time: 3-4 hours	0.36	1.08	123
concentration: 11 (µM), S9 metabolic activation: without S9, exposure time: 24 hours	0.7	1.08	88.2
concentration: 13.7 (µM), S9 metabolic activation: with S9, exposure time: 3-4 hours	0.2	1.06	117
concentration: 13.7 (µM), S9 metabolic activation: without S9, exposure time: 24 hours	0.54	1.26	74.1
concentration: 17.2 (µM), S9 metabolic activation: with S9, exposure time: 3-4 hours	0.3	1.58	106
concentration: 17.2 (µM), S9 metabolic activation: without S9, exposure time: 24 hours	0.62	1.4	72.4
concentration: 21.5 (µM), S9 metabolic activation: with S9, exposure time: 3-4 hours	0.16	1.3	101
concentration: 21.5 (µM), S9 metabolic activation: without S9, exposure time: 24 hours	0.64	1	71.7
concentration: 26.8 (µM), S9 metabolic activation: with S9, exposure time: 3-4 hours	0.23	1.51	57.7
concentration: 26.8 (µM), S9 metabolic activation: without S9, exposure time: 24 hours	1.4	0.6	64.6
concentration: 33.6 (µM), S9 metabolic activation: with S9, exposure time: 3-4 hours	0.38	1.5	62.5
concentration: 33.6 (µM), S9 metabolic activation: without S9, exposure time: 24 hours	–	–	32.7
concentration: 41.9 (µM), S9 metabolic activation: with S9, exposure time: 3-4 hours	0.42	0.7	134
concentration: 41.9 (µM), S9 metabolic activation: without S9, exposure time: 24 hours	1.28	0.5	54.7
concentration: 52.4 (µM), S9 metabolic activation: with S9, exposure time: 3-4 hours	0.28	1.14	121
concentration: 52.4 (µM), S9 metabolic activation: without S9, exposure time: 24 hours	0.86	0.76	54.7
concentration: 65.5 (µM), S9 metabolic activation: with S9, exposure time: 3-4 hours	0.32	1.28	115
concentration: 65.5 (µM), S9 metabolic activation: without S9, exposure time: 24 hours	0.78	0.76	44.4
concentration: 81.9 (µM), S9 metabolic activation: with S9, exposure time: 3-4 hours	0.3	1.56	91
concentration: 81.9 (µM), S9 metabolic activation: without S9, exposure time: 24 hours	0.52	0.8	40.6
concentration: 102 (µM), S9 metabolic activation: with S9, exposure time: 3-4 hours	0.37	3.92	59.2
concentration: 102 (µM), S9 metabolic activation: without S9, exposure time: 24 hours	–	–	36.2
concentration: 128 (µM), S9 metabolic activation: without S9, exposure time: 24 hours	–	–	17.4

O=C(O)C1C(C(=O)O)C2(Cl)C(Cl)=C(Cl)C1(Cl)C2(Cl)Cl (stereo not given) [Chlorendic acid]
Details	hypodiploid nuclei frequency, CHO-K1 [1] [%]	micronucleus frequency, CHO-K1 [3] [%]	relative survival, CHO-K1 [2]
concentration: 4.5 (µM), S9 metabolic activation: with S9, exposure time: 3-4 hours	0.22	1.24	124
concentration: 4.5 (µM), S9 metabolic activation: without S9, exposure time: 24 hours	0.92	0.88	119
concentration: 5.63 (µM), S9 metabolic activation: with S9, exposure time: 3-4 hours	0.3	1.68	122
concentration: 5.63 (µM), S9 metabolic activation: without S9, exposure time: 24 hours	0.68	1.14	126
concentration: 7.04 (µM), S9 metabolic activation: with S9, exposure time: 3-4 hours	0.36	1.3	110
concentration: 7.04 (µM), S9 metabolic activation: without S9, exposure time: 24 hours	0.7	1.24	112
concentration: 8.8 (µM), S9 metabolic activation: with S9, exposure time: 3-4 hours	0.28	1.02	125
concentration: 8.8 (µM), S9 metabolic activation: without S9, exposure time: 24 hours	0.6	1.3	109
concentration: 11 (µM), S9 metabolic activation: with S9, exposure time: 3-4 hours	0.18	0.94	109
concentration: 11 (µM), S9 metabolic activation: without S9, exposure time: 24 hours	0.64	1.32	116
concentration: 13.7 (µM), S9 metabolic activation: with S9, exposure time: 3-4 hours	0.22	0.84	118
concentration: 13.7 (µM), S9 metabolic activation: without S9, exposure time: 24 hours	0.62	1.36	119
concentration: 17.2 (µM), S9 metabolic activation: with S9, exposure time: 3-4 hours	0.26	0.66	116
concentration: 17.2 (µM), S9 metabolic activation: without S9, exposure time: 24 hours	0.58	1.52	124
concentration: 21.5 (µM), S9 metabolic activation: with S9, exposure time: 3-4 hours	0.24	1.16	121
concentration: 21.5 (µM), S9 metabolic activation: without S9, exposure time: 24 hours	0.76	1.48	109
concentration: 26.8 (µM), S9 metabolic activation: with S9, exposure time: 3-4 hours	0.32	1.18	110
concentration: 26.8 (µM), S9 metabolic activation: without S9, exposure time: 24 hours	0.98	1.3	123
concentration: 33.6 (µM), S9 metabolic activation: with S9, exposure time: 3-4 hours	0.38	1.36	110
concentration: 33.6 (µM), S9 metabolic activation: without S9, exposure time: 24 hours	1.34	1.08	120
concentration: 41.9 (µM), S9 metabolic activation: with S9, exposure time: 3-4 hours	0.26	1.24	132
concentration: 41.9 (µM), S9 metabolic activation: without S9, exposure time: 24 hours	0.9	0.98	106
concentration: 52.4 (µM), S9 metabolic activation: with S9, exposure time: 3-4 hours	0.14	0.96	119
concentration: 52.4 (µM), S9 metabolic activation: without S9, exposure time: 24 hours	1	1.28	128
concentration: 65.5 (µM), S9 metabolic activation: with S9, exposure time: 3-4 hours	0.18	1.26	112
concentration: 65.5 (µM), S9 metabolic activation: without S9, exposure time: 24 hours	1.04	1.04	126
concentration: 81.9 (µM), S9 metabolic activation: with S9, exposure time: 3-4 hours	0.24	1.06	131
concentration: 81.9 (µM), S9 metabolic activation: without S9, exposure time: 24 hours	0.7	1.6	138
concentration: 102 (µM), S9 metabolic activation: with S9, exposure time: 3-4 hours	0.14	1.12	116
concentration: 102 (µM), S9 metabolic activation: without S9, exposure time: 24 hours	1.1	1.56	142
concentration: 128 (µM), S9 metabolic activation: with S9, exposure time: 3-4 hours	0.2	1.12	116
concentration: 128 (µM), S9 metabolic activation: without S9, exposure time: 24 hours	1.06	1.68	120
concentration: 160 (µM), S9 metabolic activation: with S9, exposure time: 3-4 hours	0.18	1.22	107
concentration: 160 (µM), S9 metabolic activation: without S9, exposure time: 24 hours	1.1	1.74	121
concentration: 200 (µM), S9 metabolic activation: with S9, exposure time: 3-4 hours	0.36	1.1	115
concentration: 200 (µM), S9 metabolic activation: without S9, exposure time: 24 hours	1.58	2.08	122
